According to article PMC4336329 (PLoS ONE, 2015):
In all, about 310,000 compounds went through this assay and about 2,200 (0.71%) showed an effect of 50% or more. Effects have a minus sign here. This is one part of the list.

Target: human ether-à-go-go-related gene (hERG) potassium channel (human, UniProt Q12809)
Assay: primary screen, population patch clamp on CHO cells stably expressing hERG

human ether-à-go-go-related gene (hERG) potassium channel, sequence (Q12809 whole entry, looked up): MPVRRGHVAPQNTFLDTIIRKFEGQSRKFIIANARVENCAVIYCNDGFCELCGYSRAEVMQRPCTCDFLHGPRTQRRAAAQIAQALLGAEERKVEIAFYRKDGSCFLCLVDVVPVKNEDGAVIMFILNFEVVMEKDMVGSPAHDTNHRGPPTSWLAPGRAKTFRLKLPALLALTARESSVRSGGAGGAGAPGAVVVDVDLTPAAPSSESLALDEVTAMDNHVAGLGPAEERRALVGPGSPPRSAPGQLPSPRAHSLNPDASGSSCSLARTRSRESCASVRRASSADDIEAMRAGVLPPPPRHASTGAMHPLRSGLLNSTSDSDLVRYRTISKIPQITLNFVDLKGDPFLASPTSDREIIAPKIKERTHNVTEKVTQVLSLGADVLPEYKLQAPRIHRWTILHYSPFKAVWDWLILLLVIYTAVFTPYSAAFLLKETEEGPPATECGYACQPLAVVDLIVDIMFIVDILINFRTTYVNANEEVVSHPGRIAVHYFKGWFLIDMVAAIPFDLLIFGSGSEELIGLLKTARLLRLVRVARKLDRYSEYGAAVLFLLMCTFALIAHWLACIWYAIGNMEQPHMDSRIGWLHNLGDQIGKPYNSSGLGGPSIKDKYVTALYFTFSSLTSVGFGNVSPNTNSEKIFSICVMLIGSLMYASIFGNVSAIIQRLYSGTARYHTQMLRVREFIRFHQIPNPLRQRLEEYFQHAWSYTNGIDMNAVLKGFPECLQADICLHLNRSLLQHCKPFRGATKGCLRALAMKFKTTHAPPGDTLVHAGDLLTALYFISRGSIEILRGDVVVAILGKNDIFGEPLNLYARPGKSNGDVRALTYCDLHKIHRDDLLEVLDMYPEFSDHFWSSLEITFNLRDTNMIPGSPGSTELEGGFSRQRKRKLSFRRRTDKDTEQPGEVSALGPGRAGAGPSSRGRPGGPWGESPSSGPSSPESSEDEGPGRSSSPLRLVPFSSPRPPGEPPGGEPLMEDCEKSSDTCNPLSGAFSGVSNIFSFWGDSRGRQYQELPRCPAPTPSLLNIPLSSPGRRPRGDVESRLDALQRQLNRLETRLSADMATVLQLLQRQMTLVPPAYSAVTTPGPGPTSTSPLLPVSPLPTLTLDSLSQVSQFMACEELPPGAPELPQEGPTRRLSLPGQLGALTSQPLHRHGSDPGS

| Structure (SMILES) | hERG current change (%, negative = inhibition) at 1uM [%] |
| --- | --- |
| CS(=O)(=O)Nc1ccc(S(=O)(=O)N2CCCCCC2)cc1 | -40.1 |
| Cc1ccc(NC(=O)CN(C)C(=O)c2ccc(Cl)c([N+](=O)[O-])c2)cc1 | -15.3 |
| CN(C)C(=O)COC(=O)c1ccccc1Nc1ccc(SC(F)F)cc1 | 7.32 |
| O=C(NC(Cc1ccccc1)C(=O)O)c1cccnc1Cl (stereo not shown) | 8.38 |
| CCn1c(=O)c2sccc2n(Cc2cc(C(=O)OC)ccc2OC)c1=O | 9.16 |
| Cc1cccc(N(C(=O)c2ccco2)C(C(=O)NC2CCCC2)c2cccnc2)c1C (stereo not shown) | -1.27 |
| CCN(CC)CCNC(=O)Cn1ncc2ccccc2c1=O | 14.9 |
| CCc1c(C)nc2ncnn2c1N1CCCC(C(=O)NCCc2ccc(OC)cc2)C1 (stereo not shown) | -1 |
| Cc1cc(C)c(NC(=O)Cn2nnc(C(=O)NCc3ccc4c(c3)OCO4)c2N)c(C)c1 | 12.2 |
| O=C(NC(=O)c1csnn1)Nc1ccccc1Cl | 8.17 |
| CC1(C)CN(c2cccc(-c3ccnc4ncnn34)c2)C1=O | 8.75 |
| N#Cc1ccc(NC(=O)CN2C(=O)NC3(CCCC3)C2=O)cc1Cl | 17.1 |
| CCc1ccccc1N(CC(=O)NCc1ccccc1)C(=O)CCC(=O)Nc1ccccn1 | 8.47 |
| Cc1ccc(CNC(=O)C(=O)Nc2nccs2)cc1 | 15.6 |
| CC(C)CNC(=O)COC(=O)c1ccc(Cl)c(S(=O)(=O)N2CCc3ccccc32)c1 | 14 |
| CC/C=C/C(=O)N1CC2(CC(c3cccc(NC(=O)COc4ccc(Cl)cc4)c3)=NO2)C[C@H]1C(N)=O (stereo partly shown) | -2.91 |
| CC(C)Oc1ccc(S(=O)(=O)N2CCOCC2)cc1NC(=O)C1CCC1 | 3.74 |
| Cc1nc2sc3c(c2c(=N)n1N)CCCC3 | 9.05 |
| O=C(Nn1cnnc1)c1cc2c(s1)CCCCC2 | -2.72 |
| CC(C)NC(=O)NC(=O)COC(=O)c1ccc(F)cc1F | 7.53 |
| CCC(=O)Nc1sc2c(c1C#N)CC(C)(C)NC2(C)C | 6.85 |
| CC(C)Cn1cnc2c1c(=O)n(CC(=O)Nc1ccc3c(c1)OCO3)c(=O)n2Cc1ccccc1 | 1.82 |

| Structure (SMILES) | hERG current change (%, negative = inhibition) at 1uM [%] |
| --- | --- |
| Cc1ccc2cc(C#N)c(SCC(=O)N3CCCc4ccccc43)nc2c1 | 6.41 |
| Cc1ccc(N=Nc2c(C)[nH]n(C(N)=S)c2=O)cc1C | 11.2 |
| CCOc1ccc(NC(=O)CSc2nnc(CCNC(=O)c3ccc(OC)cc3)n2CC)cc1 | -11.6 |
| COc1ccc(S(=O)(=O)NC(N)=NCCc2ccc(OC)c(OC)c2)cc1 | 13.1 |
| Cc1ccc2cc(CN(Cc3ccc4c(c3)OCO4)Cc3nnnn3Cc3ccco3)c(=O)[nH]c2c1C | -1.26 |
| COc1ccc(CNC(=O)c2cccs2)cc1 | -0.685 |
| COc1ccccc1C(=O)N/C(=C\c1cn(C)c2ccccc12)C(=O)NCCCn1ccnc1 | 12.2 |
| Cc1ccc2c(c1)-c1cc(C)nn1C(c1ccc3c(c1)OCO3)N2 (stereo not shown) | 9.75 |
| COc1ccc(C(=O)N/C(=C\c2cn(C)c3ccccc23)C(=O)NCCN2CCOCC2)cc1OC | 14.9 |
| Cc1cccnc1NC(=O)CCNS(=O)(=O)c1ccc2c(c1)c(=O)n(C)c(=O)n2C | 24.2 |
| CCOC(=O)c1c(NC(=O)CN2CCOCC2)sc(C(=O)NC)c1C | 7.06 |
| CN(C(=O)C1CCC1C(=O)O)c1nc(-c2ccc(Cl)s2)cs1 (stereo not shown) | 9.92 |
| O=C(CNC(=S)NC(=O)c1ccc(Br)o1)c1ccccc1 | 14.1 |
| Cc1cccc(NC(=S)NNC(=S)NC2CCCCC2)c1C | 13.1 |
| O=C(CCCCCNC(=O)c1ccccc1Br)N=Nc1c(O)[nH]c2ccccc12 | 4.75 |
| Clc1ccccc1CSc1ncn(-c2ccccc2)n1 | -22.1 |
| Brc1ccc(OCCN2CCOCC2)cc1 | 5.92 |
| O=C(c1n[nH]c(=O)c2ccccc12)N1CCOCC1 | 11.6 |
| Cc1ccc(CN(C)Cc2cc(=O)oc3cc(C)c(Cl)cc23)cc1 | 15.6 |
| Cn1ccnc1SCC(=O)c1ccc(F)cc1 | 14.3 |
| Cc1ccc(C(=O)COC(=O)C2CCC2)cc1 | 18.3 |
| Cc1ccc(C(C)C)c(OCC(=O)NC2CCN(C)CC2)c1 | 7.64 |

| Structure (SMILES) | hERG current change (%, negative = inhibition) at 1uM [%] |
| --- | --- |
| O=C(c1ccccc1CCc1ccccc1)N1CCOCC1 | 8.77 |
| CCn1c(COc2ccc3c(c2)CCCC3)nnc1SCC(=O)Nc1ccc(C(=O)OC)cc1 | 3.65 |
| CCOc1cc(C(=O)N(C)CC(=O)Nc2cccc(F)c2)ccc1OCC(=O)N1CCCCC1 | 8.02 |
| Cc1ccc(-c2csc3nnc(SCC(=O)NCc4ccc5c(c4)OCO5)n23)cc1 | -21.1 |
| Cc1ccc(C(=O)Nc2cccnc2)cc1S(=O)(=O)N1CCCCC1 | 10.2 |
| CN(C(=O)c1ccc(NC(=O)Cc2cccc(NC(=O)C3CCCN(C(=O)C4CCCC4)C3)c2)cc1)C1CCCC1 (stereo not shown) | 9.21 |
| CC(OC(=O)COc1ccc(C#N)cc1)C(=O)Nc1ccc(Cl)cn1 (stereo not shown) | 0.0565 |
| COc1ccc(NC(=O)C2Cc3ccccc3CN2C(=O)c2ccccc2)cn1 (stereo not shown) | 8.2 |
| Cc1cccc(Nc2nc(N)c([N+](=O)[O-])c(NCc3ccccc3)n2)c1 | 5.82 |
| COc1ccc(/C=C2\CCc3ccccc3C2=O)cc1O | 14.2 |
| CC1CCN(c2oc(Cc3cccc4ccccc34)nc2C#N)CC1 | -0.584 |
| CC(C)c1ccc(Nc2nc(NCc3ccco3)nc(N3CCOCC3)n2)cc1 | 7.58 |
| COc1ccccc1-c1nc(SCC(=O)NCc2ccco2)c2c(=O)n(C)c(=O)n(C)c2n1 | 11.9 |
| CCOc1ccc2nc(NC(=O)C(NS(=O)(=O)c3cccs3)C(C)C)sc2c1 (stereo not shown) | 8.05 |
| CCOC(=O)N1CCC(=NNC(=O)COc2ccc(OC)cc2)CC1 | 9.72 |
| CC12COC3(C(=O)Nc4ccc5ccccc5c4)CC1CCC32C (stereo not shown) | 12.2 |
| CCc1ccc(NC(=O)CN2CCC(C(=O)c3ccc(OC)cc3)CC2)cc1 | -3.64 |
| CN(C)c1nnnn1-c1ccc(Oc2ccccc2)cc1 | -6.74 |
| COc1ccc(OC)c2c1cc(C(=O)N[C@H](C(=O)N1CCC[C@H]1C(=O)O)C(C)C)n2C | 18.5 |
| COCCOC(=O)C1=C(N)Oc2c(c(=O)oc3ccccc23)[C@@]12C(=O)Nc1ccccc12 | 12.1 |
| CC(=O)c1ccc(-c2ccc(C(=O)NC3CC(C)(C)NC(C)(C)C3)o2)cc1 | -71.1 |
| C/C(=N\NC(=O)c1cc(C)[nH]n1)c1cccs1 | 7.47 |

| Structure (SMILES) | hERG current change (%, negative = inhibition) at 1uM [%] |
| --- | --- |
| O=C(/C=C/c1ccc(Cl)c([N+](=O)[O-])c1)Nc1ccc(N2CCCC2)c(Cl)c1 | 15.8 |
| CC1CCN(CCNC(=O)C2CCN(S(=O)(=O)c3cccc4nsnc34)CC2)CC1 | -5.06 |
| c1ccc2c(c1)ncn2Cc1nnc2sc(-c3ccc4c(c3)OCO4)nn12 | 9.73 |
| CN(C)S(=O)(=O)c1ccc(NC(=O)N2CCOCC2)cc1 | 14.3 |
| COc1cc(CN2CCNC(=O)C2CC(=O)N(Cc2nccn2C)C(C)C)cc(OC)c1 (stereo not shown) | 10.1 |
| Cc1cc(C)nc(SCC(=O)Nc2cccc(S(=O)(=O)N(C)C)c2)n1 | 5.02 |
| COC(=O)c1ccc(CN(c2ccc(C(=O)O)c(O)c2)S(=O)(=O)c2ccc(Cl)c([N+](=O)[O-])c2)cc1 | 15.6 |
| CCC1CCCCN1CCCNC(=O)COc1cc(=O)n(C)c2ccccc12 (stereo not shown) | 8.4 |
| C#CCNC(=O)C1=C[C@H](C(C)(C)C)C[C@H](OCc2ccc(CO)cc2)O1 | 5.41 |
| CCn1c(=O)c2sccc2n2c(CCCC(=O)N3CCN(c4ccccn4)CC3)nnc12 | 15.1 |
| CC(=O)c1cccc(NC(=O)CC2CCCC2)c1 | 11.3 |
| CC1CCN(C(=O)CN2C(=O)COc3ccc(Cl)cc32)CC1 | 14.2 |
| CCN(CC)C(=O)NC1CCCCCCC1 | 14.7 |
| COc1ccc(C)cc1NC(=O)NCc1ccccc1F | 1.39 |
| CO/N=C(/CNC(=O)c1ccc(Cl)cc1Cl)c1ccc(Cl)cc1 | -2.43 |
| CCOC(=O)C1CCN(C(=O)CCc2nnc3ccc(N4CCC(C)CC4)nn23)CC1 | -8.48 |
| CCNC(=S)N(CCCN(CC)CC)Cc1cc2cc3c(cc2[nH]c1=O)OCO3 | 9.28 |
| CC(C)(C)C(O)CN1CCCC1.Cl (stereo not shown) | 5.11 |
| O=Cc1ccc(N2CCCCC2)cc1 | 9.83 |
| CCN1CCN(C(=O)Nc2ccccc2OC)CC1.O=C(O)C(=O)O | 6.25 |
| c1ccc(Nc2nc(-c3ccccc3)nc3ccccc23)cc1 | 13.5 |
| FC(F)Oc1cccc2cccnc12 | 5.7 |
